This is an account of results in the BET-seq Pho4 binding data (Le et al. 2018).

The list shows a part of the results. These are noisy estimates, calculated here from bound and input reads.

This test has as its target T1, Pho4 (S. cerevisiae) (UniProt P07270).
T1 sequence: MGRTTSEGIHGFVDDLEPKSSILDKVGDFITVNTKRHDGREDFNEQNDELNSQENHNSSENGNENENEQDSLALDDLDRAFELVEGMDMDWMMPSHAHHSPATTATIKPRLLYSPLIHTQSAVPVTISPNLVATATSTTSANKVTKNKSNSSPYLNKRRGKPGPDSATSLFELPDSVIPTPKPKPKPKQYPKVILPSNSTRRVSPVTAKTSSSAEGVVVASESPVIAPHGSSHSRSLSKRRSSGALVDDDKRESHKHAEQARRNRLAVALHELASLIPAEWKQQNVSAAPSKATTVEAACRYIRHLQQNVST
The test is described as follows: relative binding free energy (BET-seq); higher = weaker binding. The settings on record: reference: library average.
As for TAGAACACGTGGAGTG, the “relative binding free energy” value stood at 0.17 kcal/mol.
Regarding GTTGCCACGTGGTTGA, the “relative binding free energy” value is 0.03 kcal/mol.
Turning to TGAGGCACGTGGATAA, the “relative binding free energy” value is -0.15 kcal/mol.
As for GGTGACACGTGTCTTG, the “relative binding free energy” value is 0.08 kcal/mol.
As for GTTGTCACGTGGGTTT, the figure is 0.12 kcal/mol; as for CGGGTCACGTGTTGTC, 0.02 kcal/mol.
Next, GGGTTCACGTGTTAGC: 0.26 kcal/mol.
As to TAGTTCACGTGATAGA, the “relative binding free energy” value was found to be 0.49 kcal/mol.
Consider GGTTGCACGTGCGATG, for which the “relative binding free energy” value is -0.07 kcal/mol.
As for GATGACACGTGTTGAG, the figure is 0.08 kcal/mol; as for GGTCACACGTGTGTGT, 0.18 kcal/mol.
In the case of GTAGACACGTGGAGAG, the “relative binding free energy” value is 0.01 kcal/mol.
As to ATTCGCACGTGGTATA, the “relative binding free energy” value is -0.07 kcal/mol.
As for TTTGGCACGTGCGTGA, the figure is -0.13 kcal/mol; as for TTTTTCACGTGAAGCA, 0.32 kcal/mol.
TAATGCACGTGTGCGT: the “relative binding free energy” value was -0.13 kcal/mol.
As for TCTGTCACGTGATTGG, the figure is 0.2 kcal/mol; as for AGTCACACGTGTTGGA, 0.01 kcal/mol; as for ACGTACACGTGTGGAG, 0.16 kcal/mol.
Next, CGGTGCACGTGTATTT: -0.09 kcal/mol; ATGGTCACGTGGTAGT: 0.16 kcal/mol.
Next, GTAAACACGTGATGTT: 0.14 kcal/mol; ATAAACACGTGTTGGG: -0.11 kcal/mol; GTAATCACGTGCGGTC: 0.35 kcal/mol.
In the case of CCTGTCACGTGTTGTG, the “relative binding free energy” value was found to be 0.04 kcal/mol.
TGTGCCACGTGATCTG: the “relative binding free energy” value was 0.04 kcal/mol.
In the case of TTGGTCACGTGGAGCA, the “relative binding free energy” value is 0.04 kcal/mol.
Regarding TTGGACACGTGGTTTT, the “relative binding free energy” value was determined as 0.13 kcal/mol.
Regarding CTATTCACGTGTGTAA, the “relative binding free energy” value was 0.21 kcal/mol.
Next, CGGGGCACGTGGACGG: -0.11 kcal/mol; GTTAGCACGTGGTGAT: -0.07 kcal/mol.
As for GATTCCACGTGGGGTA, the figure is -0.12 kcal/mol.
As to ATCTGCACGTGGTTCG, the “relative binding free energy” value was -0.06 kcal/mol.
AGTGACACGTGTATAT: the “relative binding free energy” value was -0.05 kcal/mol.
Next, ACGGGCACGTGGGTTA: -0.26 kcal/mol.
As for AGCGGCACGTGGTGGG, the figure is -0.08 kcal/mol; as for ATTATCACGTGTAGAT, 0.15 kcal/mol; as for TATGGCACGTGGGCTG, -0.31 kcal/mol.
As for AAACGCACGTGGGGAG, the “relative binding free energy” value is -0.19 kcal/mol.
Next, ACTTTCACGTGGTGAG: 0.08 kcal/mol; GTTGACACGTGCTAGT: 0.07 kcal/mol; TTCAGCACGTGTTGGG: 0.01 kcal/mol.
Take ACGGACACGTGGGGAG: the “relative binding free energy” value was -0.2 kcal/mol.
As for ATGTTCACGTGCTTCG, the figure is 0.15 kcal/mol; as for TATTTCACGTGTAAAA, 0.27 kcal/mol.
As for CAAAGCACGTGAGGGG, the “relative binding free energy” value worked out at 0.16 kcal/mol.
Next, TTGATCACGTGGTCTT: -0.05 kcal/mol; TTTCTCACGTGTCTTA: 0.27 kcal/mol.
As for GGTGACACGTGCTGTT, the figure is -0.06 kcal/mol; as for ATTGCCACGTGTGGTG, -0.08 kcal/mol; as for GAATTCACGTGATGGT, 0.32 kcal/mol.
As for GTTGTCACGTGCTGGG, the figure is 0.11 kcal/mol; as for AAGGCCACGTGGGAGT, -0.26 kcal/mol.
Consider TTATACACGTGTTGCG, for which the “relative binding free energy” value is 0.09 kcal/mol.
In the case of TAAGGCACGTGTTGTA, the “relative binding free energy” value was -0.16 kcal/mol.
As for AGAGCCACGTGGGTGA, the “relative binding free energy” value is -0.06 kcal/mol.
As for TGTGGCACGTGTGTCC, the figure is -0.13 kcal/mol; as for TGGGTCACGTGCGGCA, 0.01 kcal/mol.
Consider TGTTTCACGTGTTCTC, for which the “relative binding free energy” value worked out at 0.03 kcal/mol.
Next, ATGTACACGTGGAGGC: 0.01 kcal/mol; CGGGTCACGTGAAAAG: 0.31 kcal/mol; CGAGGCACGTGGTATG: -0.08 kcal/mol.
Turning to AATGGCACGTGGTTTG, the “relative binding free energy” value was -0.11 kcal/mol.
Regarding CATGACACGTGGTGTT, the “relative binding free energy” value was -0.09 kcal/mol.
As for GTTTGCACGTGCATGA, the figure is 0.01 kcal/mol; as for ATAGTCACGTGTTACG, 0.07 kcal/mol; as for TAGTGCACGTGGAGGG, 0.01 kcal/mol.
As for TAGATCACGTGAAAGT, the figure is 0.33 kcal/mol; as for TTTGGCACGTGGAACG, -0.16 kcal/mol.
Consider GTGGGCACGTGAGGTA, for which the “relative binding free energy” value came out at 0.16 kcal/mol.
Next, AGATGCACGTGGTGTG: -0.09 kcal/mol.
As for TTGTGCACGTGACGTA, the figure is 0.08 kcal/mol; as for TGCTGCACGTGGCTTG, -0.2 kcal/mol; as for GGAGGCACGTGTCAGA, 0.02 kcal/mol.
Next, ATTAACACGTGGGGGA: -0.13 kcal/mol.
For GGGGACACGTGTCAGT, the “relative binding free energy” value was -0.03 kcal/mol.
Next, TTGTTCACGTGTGATT: 0.36 kcal/mol.
Consider GTGATCACGTGCGGGC, for which the “relative binding free energy” value is -0.03 kcal/mol.
As for AAGGACACGTGTAGGG, the figure is 0.09 kcal/mol; as for TAAATCACGTGGTAAT, 0.18 kcal/mol.
Take TTAGTCACGTGCGGGT: the “relative binding free energy” value amounted to 0.08 kcal/mol.
Next, TTTCTCACGTGATTGC: 0.42 kcal/mol; GATTGCACGTGGGGTA: -0.13 kcal/mol.
For GGTATCACGTGCTGTT, the “relative binding free energy” value came out at 0.17 kcal/mol.
For CGGATCACGTGTGGGA, the “relative binding free energy” value was 0.34 kcal/mol.
As for TTGTCCACGTGGTATA, the figure is 0.09 kcal/mol; as for TATGGCACGTGATCGA, -0.08 kcal/mol; as for TGATTCACGTGGCCGG, 0.1 kcal/mol.
For TTAGTCACGTGAAATG, the “relative binding free energy” value came out at 0.49 kcal/mol.
Next, GTATGCACGTGAAGGA: 0.2 kcal/mol; GGGTACACGTGTCATT: 0.15 kcal/mol; GTTTGCACGTGACGAT: 0.23 kcal/mol.
Regarding TCTGTCACGTGTTGTT, the “relative binding free energy” value was found to be 0.06 kcal/mol.
Next, GTTAACACGTGGTAAG: 0.11 kcal/mol; GGCTGCACGTGGTGGA: -0.11 kcal/mol.
Consider GGCTGCACGTGTGTTA, for which the “relative binding free energy” value amounted to 0.09 kcal/mol.
Next, GTTGGCACGTGGTACT: -0.12 kcal/mol.
As for GGTGACACGTGTTGGA, the figure is 0.1 kcal/mol; as for TTCGTCACGTGATATA, 0.19 kcal/mol; as for AGCGTCACGTGTGTAG, -0.01 kcal/mol.
TAAGACACGTGAGAGT: the “relative binding free energy” value amounted to 0.32 kcal/mol.
Regarding GCAATCACGTGGGATG, the “relative binding free energy” value came to 0.08 kcal/mol.
Next, GGAGGCACGTGTAAGC: 0.02 kcal/mol.
Next, GGGGGCACGTGTTTGA: 0.05 kcal/mol.
On to CGGTGCACGTGTGTAT, for which the “relative binding free energy” value was -0.06 kcal/mol.
Regarding GTAGGCACGTGTGGAG, the “relative binding free energy” value was -0.01 kcal/mol.
In the case of GGGTCCACGTGCAGGG, the “relative binding free energy” value turned out to be 0.12 kcal/mol.
Take GTTTGCACGTGAGGGG: the “relative binding free energy” value came to 0.25 kcal/mol.
Next, ATTGACACGTGATGGC: 0.23 kcal/mol; GAAGACACGTGGGTTG: -0.05 kcal/mol.
In the case of ATTTGCACGTGTTTAG, the “relative binding free energy” value was found to be 0.01 kcal/mol.
Consider TGTAGCACGTGGTAAG, for which the “relative binding free energy” value is -0.06 kcal/mol.
With TGTTGCACGTGCTGGT, the “relative binding free energy” value is -0.09 kcal/mol.
Next, TTTAGCACGTGAGATT: 0.19 kcal/mol; TGGGTCACGTGACCGT: 0.09 kcal/mol.
